One molecule from patent publication US20190330347A1 (published 2019) can be followed below.

The assay has as its target biotin-labeled PD-1 antigen (UniProt Q15116 partial chain, biotin-labeled (site not stated)). The experiment in a line: BLI (Fortebio). (In BLI a coated tip is dipped into the sample, and binding shifts an interference pattern.)
Chain of UniProt Q15116 (Q15116 25-167): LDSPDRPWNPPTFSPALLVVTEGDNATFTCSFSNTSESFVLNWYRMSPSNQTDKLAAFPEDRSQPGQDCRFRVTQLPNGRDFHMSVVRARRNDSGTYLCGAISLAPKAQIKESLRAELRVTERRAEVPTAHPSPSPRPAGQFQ

B1: humanized H2L2 antibody (wild-type IgG-like antibody H2L2 against PD-1) (antibody)
heavy: EVQLVQSGGGLVQPGGSLKLSCAASGFTFSSYGMSWVRQAPGKGLDWVATISGGGRDTYYPDSVKGRFTISRDNSKNNLYLQMNSLRAEDTALYYCARQKGEAWFAYWGQGTLVTVSSASTKGPSVFPLAPCSRSTSESTAALGCLVKDYFPEPVTVSWNSGALTSGVHTFPAVLQSSGLYSLSSVVTVPSSSLGTKTYTCNVDHKPSNTKVDKRV[human IgG4 Fc with S228P (EU numbers) left out here]
light: DIVLTQSPASLAVSPGQRATITCRASESVDNYGISFMNWFQQKPGQPPKLLIYAASNKGTGVPARFSGSGSGTDFTLNINPMEENDTAMYFCQQSKEVPWTFGGGTKLEIKRTVAAPSVFIFPPSDEQLKSGTASVVCLLNNFYPREAKVQWKVDNALQSGNSQESVTEQDSKDSTYSLSSTLTLSKADYEKHKVYACEVTHQGLSSPVTKSFNRGEC
One may read the Kd as the concentration at which binding is half-saturated. Low readings indicate tighter binding, high ones weaker binding. B1 returned a dissociation constant (Kd) of 0.27 nM.
